Test results as given in PubChem BioAssay AID1346428 (National Center for Advancing Translational Sciences (NCATS), 2018).
In all, about 48,000 compounds went through this assay and about 1,200 (2.5%) were called active. Roughly 2% stayed inconclusive and do not appear here.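 Rule for the calls: active = activation of at least 60% and not above a set upper limit (about 1 call in 100 departs from these limits); inconclusive = activation of 40% to 60%, or above that upper limit; inactive = activation under 40%.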 The list shows a part of the results.

What follows are compounds tested against Probable G-protein coupled receptor 32 (Homo sapiens) (UniProt O75388) (assay: qHTS for Agonists of Human Resolvin D1 Receptor DRV1). Settings: CHO-K1 GPR32 beta-arrestin PathHunter luminescence, 90 min; at 76.9 µM; active compounds read high; zero percent set by DMSO-only wells.
Summary of the method: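 CHO-K1 cells stably expressing ProLink-tagged GPR32 and Enzyme Activator-tagged beta-arrestin were seeded at 2,500 cells/well overnight, exposed to compounds for 90 min at 37 °C, then read by beta-Gal complementation chemiluminescence after 1 h detection reagent.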
Note: 0% is about no effect.

Sequence of UniProt O75388 (O75388 whole entry, looked up): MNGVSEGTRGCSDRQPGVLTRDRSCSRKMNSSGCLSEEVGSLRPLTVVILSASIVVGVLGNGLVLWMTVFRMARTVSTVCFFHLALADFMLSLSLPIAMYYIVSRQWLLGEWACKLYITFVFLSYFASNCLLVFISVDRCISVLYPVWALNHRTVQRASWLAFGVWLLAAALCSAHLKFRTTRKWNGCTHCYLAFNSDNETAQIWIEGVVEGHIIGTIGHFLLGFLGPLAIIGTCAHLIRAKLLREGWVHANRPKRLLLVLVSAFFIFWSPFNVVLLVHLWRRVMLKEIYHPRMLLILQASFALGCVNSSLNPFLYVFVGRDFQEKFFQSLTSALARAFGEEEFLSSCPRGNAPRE

activation, inactive:
CCCC12CN3CC(CCC)(CN(C1)C3c1c(C)[nH]c(=O)[nH]c1=O)C2=O (stereo not drawn) -10.2%
O=C(Nc1ccc(F)cc1F)N1CCN(c2ccc(Cl)c(Cl)c2)CC1 28.4%
CCc1nn(Cc2c(C)cc(C)cc2C)c(=O)c2cc3cc(C)ccc3n12 3.49%
COc1cc(Nc2ncc3c(n2)CCN(Cc2cc(F)cc(F)c2)C3)cc(OC)c1 -5.59%
COc1ccccc1NC(=O)CSc1oc(-c2ccc(F)cc2)nc1S(=O)(=O)c1ccc(Br)cc1 -11.6%
CC(C)(C)c1ccccc1NC(=O)c1cnn2c(C(F)F)cc(-c3ccccc3)nc12 -4.97%
CCOC(=O)c1cnc(N2CCN(c3ccc(C)cc3C)CC2)c2ccccc12 -24%
Cn1c(=O)c2c(SCC(=O)Nc3ccc(F)cc3F)nc(C3CCCC3)nc2n(C)c1=O 5.05%
Cc1ccc(C)c(NC(=O)Cn2ccn(-c3ccc(F)cc3)c(=O)c2=O)c1 -5.33%
CSc1cccc(NC(=O)CN2C(=O)COc3ccc(S(=O)(=O)N4CCC(C)CC4)cc32)c1 -20.6%
Nc1nc2ccc(Cl)cc2c2nc(-c3ccco3)nn12 15.1%
Cc1cc(C)cc(Nc2cc(C)nc3nc(-c4ccco4)nn23)c1 9.3%
OC1C(O)C(O)C(O)C(O)C1O (stereo not drawn) -1.78%
Cc1ccc(-c2nc3c4ccccc4n(CC(=O)N4CCN(c5ccc(F)cc5)CC4)c(=O)n3n2)cc1 -7.54%
Cc1ccc(CN(C(=O)c2ccccc2[N+](=O)[O-])c2ccccn2)cc1 -7.61%
Cc1cc(N2CCC(C(=O)NCCC(C)C)CC2)n2nc(C)c(-c3ccc(Cl)cc3)c2n1 13.2%
CCC(C)NC(=O)Cn1c(-c2cccs2)cc2cc(Cl)ccc21 (stereo not drawn) 0.268%
CCOC(=O)c1c(NC(=O)c2cc(-c3ccc(Cl)cc3)on2)sc(C)c1C 37.6%
Cc1cc(C)cc(NC(=O)Cn2c(=O)n(Cc3ccc4c(c3)OCO4)c(=O)c3oc4ccccc4c32)c1 -2.18%
Cc1cccc(CNC(=O)Cn2ccc3cc(S(=O)(=O)N4CCC(C)CC4)ccc32)c1 3.38%
O=C(Cn1c(=O)n(Cc2nc(-c3ccccc3)no2)c(=O)c2cc3c(cc21)OCO3)Nc1cccc(C(F)(F)F)c1 -15.2%
COc1ccc(-c2ccc(CCC(=O)O)n2-c2cc(Cl)ccc2O)cc1 -13.1%
COc1ccccc1-c1cc(C(F)(F)F)nc(S(=O)(=O)CCCC(=O)Nc2ccc(F)cc2F)n1 -16.9%
CCOC(=O)c1c(C)[nH]c(C)c1S(=O)(=O)N(C)CC(=O)Nc1cccc(C(F)(F)F)c1 -17.7%
CCOC(=O)C1CCN(C(=O)Cn2ncc3c([nH]c4ccccc43)c2=O)CC1 -12%
COc1cccc(C2CC(=O)Nc3c2c(=O)n(C)c2nc4ccccc4n32)c1 (stereo not drawn) 8.06%
CCC(C)N(C)C(=O)c1cc2ccccc2c(-c2ccccc2Cl)n1 (stereo not drawn) -17.1%
CCOc1ccc(-c2csc(-c3c(N)c(C(=O)c4ccc5c(c4)OCO5)n4ccccc34)n2)cc1 -4.59%
CCOc1ccccc1NC(=O)c1nn(C)c2c1CSc1ccccc1-2 3.13%
COc1ccc(C)cc1NC(=O)CN1C(=O)COc2ccc(S(=O)(=O)NC3CCCC3)cc21 -4.88%
CN(C)CCNC(=O)c1ccc(Cn2c(=O)c3cccn3c3cccnc32)cc1 -20.8%
Cn1nc(-c2ccc(N3CCCCC3)c(NC(=O)c3ccc(Cl)cc3)c2)c2ccccc2c1=O -0.487%
CCCc1cc(=O)[nH]c(SCc2nc(-c3ccccc3F)no2)n1 10.2%
COc1ccc(-n2c(=O)c3c4c(sc3n3c(SC(C)C)nnc23)COC(C(C)C)C4)cc1 (stereo not drawn) 0.342%
Cc1ccccc1CSc1nc2c([nH]c3ccccc32)c(=O)n1C -8.57%
CCOC(=O)c1cc(S(=O)(=O)Nc2ccccc2OCC)[nH]n1 -18.9%
COc1ccc(NC(=O)c2cc(=O)c3ccc(C)c(C)c3o2)cc1Cl 0.276%
Cc1ccc(-n2ncc(C(=O)NCCN3CCc4ccccc4C3)c2C2CCNCC2)cc1C 4.31%
CCCn1c(=NC(=O)c2c(-c3c(F)cccc3Cl)noc2C)c(C(=O)OCC)cc2c(=O)n3ccccc3nc21 -5.44%
CC(=O)c1cccc(Nc2ccc3cc(S(=O)(=O)N4CCCC4)ccc3n2)c1 34.6%
Cc1cccc(CNC(=O)c2ccc(NC(=O)N3CCSc4ncccc43)cc2)c1 -5.57%
CC1CCN(S(=O)(=O)c2ccc3c(c2)N(CC(=O)NCCCN2CCCC(C)C2)C(=O)CS3)CC1 (stereo not drawn) -18.1%
CCOc1ccc(NC(=O)C(C)Sc2nc3ncccc3o2)cc1 (stereo not drawn) -18.3%
CCN(CC)CCN -9.03%
CC(=O)c1ccc(N2CCN(c3ncnc4c3cnn4C)CC2)cc1 12.8%
Cc1ccc2c(c1)-c1ncc(C(=O)c3cc(Br)ccc3O)cc1CO2 -40.2%
COc1ccc(-n2nc(C(=O)Nc3cccc(C)n3)c3c4ccccc4n(C)c3c2=O)cc1 7.38%
Cc1cccc(NC(=O)c2oc3ccc(S(=O)(=O)N4CCC5(CC4)OCCO5)cc3c2C)c1C 2.81%
CCC(C)NC(=O)C1CCC(CNS(=O)(=O)c2cccc3nsnc23)CC1 (stereo not drawn) 26.4%
CCS(=O)(=O)N1CC(=O)N(c2ccc(C)c(C)c2)C(C)(C(=O)NC2CCCCC2)C1 (stereo not drawn) 5.8%
O=c1oc2ccc(Br)cc2cc1-c1nc(-c2ccccc2)no1 -5.11%
CCc1ccc(-c2nc3c(c(SCc4ccc(F)cc4)n2)Cc2c(CO)cnc(C)c2O3)cc1 13.2%
COc1cccc(CNC(=O)Cn2ncc3c4ccccc4n(C)c3c2=O)c1 3.02%
